Patent publication US11130780B2, “Inhibitors of growth factor activation enzymes” (Washington University, priority 2015, dated 2021)
For some assays here: Part of at least one peptide drawing is inferred or uncertain, most often the ends. For some assays here: For at least one compound, name, drawing or mass did not settle the structure. One block for each compound: values may come before it. Starred links: 1 amine or outer side, 2 acyl side, 3 side chain; linkers in the order of their positions; H or OH if unused. Non-standard residues stand in square brackets, D forms with d. Residues, ends and D or L forms follow the SMILES beside them. *: point of attachment. X1 = N=C(N)NCCC[C@H](N[*:1])C(=O)c1nc2ccc(C(=O)[*:2])cc2s1; ACC = NC(=O)Cc1cc(=O)oc2cc(N*)ccc12; hArg = N=C(N)NCCCC[C@H](N)C(=O)O; Agp = N=C(N)NC[C@H](N)C(=O)O; Nle = CCCC[C@H](N)C(=O)O

Legend:
Type in all cases: biochemical
HGFA [1] = biological target: T1, HGFA (Homo sapiens, UniProt Q04756); test: Kinetic parameters of ACC substrates (Table 11.4)
T1 sequence (Q04756 408-655 limits assumed): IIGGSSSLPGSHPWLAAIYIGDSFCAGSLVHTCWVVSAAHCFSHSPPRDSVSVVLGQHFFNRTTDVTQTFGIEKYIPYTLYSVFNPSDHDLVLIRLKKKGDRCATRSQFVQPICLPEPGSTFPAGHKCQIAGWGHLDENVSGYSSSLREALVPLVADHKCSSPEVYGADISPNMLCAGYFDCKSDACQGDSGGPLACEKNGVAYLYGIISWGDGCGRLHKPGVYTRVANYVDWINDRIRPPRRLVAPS
T1 sequence (Q04756 373-407 partner limits assumed): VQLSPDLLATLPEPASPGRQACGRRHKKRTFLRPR
Text: Results for MSP-MS profiling for HGFA substrate cleavage and specificity can be seen in FIG. 20 and Tables 11.1-11.4. IceLogo graphs can be seen in FIGS. 21A and 21B.

HGFA [2] = biological target: T2, HGFA (Homo sapiens, UniProt Q04756); test: Fluorescent kinetic enzyme inhibitor assay of HGFA; conditions: for Ki: Table 6.1, Fluorogenic Assay; for fold increase in HGFA potency: versus parent compound
T2 construct: His6 tag (N); seven amino acid spacer and seven amino acid TEV cleavage site (N); Honey Bee melittin signal peptide (N); made in house; host or cells: High 5 insect cells (baculovirus; virus raised in Sf9)
T2 sequence (Q04756 373-655): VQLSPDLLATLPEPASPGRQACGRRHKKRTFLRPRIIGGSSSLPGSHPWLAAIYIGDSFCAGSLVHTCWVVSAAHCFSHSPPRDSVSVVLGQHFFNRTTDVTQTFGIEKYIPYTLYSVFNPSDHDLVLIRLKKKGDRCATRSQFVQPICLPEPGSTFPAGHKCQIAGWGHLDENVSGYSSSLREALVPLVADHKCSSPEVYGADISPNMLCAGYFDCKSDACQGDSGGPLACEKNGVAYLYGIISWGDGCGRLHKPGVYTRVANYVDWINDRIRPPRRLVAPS
Text: Using primers identified as SEQ ID NO 1, SEQ ID NO 2, and standard PCR protocols, the nucleotide sequence encoding amino acids 373-655 of HGFA was synthesized. This PCR product was cloned into the SfoI-HindIII sites of a modified pFastBac HT baculovirus expression vector (Addgene, Cambridge, Mass.). This vector contains a six amino His tag followed by a seven amino spacer and a seven amino acid TEV cleavage site placed immediately downstream of the Honey Bee melittin signal peptide. Using a modified Bac to Bac Expression System (Life Technologies, Carlsbad, Calif.), recombinant HGFA bacmids were obtained by transforming DH10Bac Escherichia coli cells. To obtain HGFA containing baculovirus, purified bacmids were transfected into Sf9 insect cells. After 5 days in culture at 27° C., media was harvested from transfected Sf9 cells. This media was used to prepare baculovirus infected insect cells (BIICs). These BIIICs were used to infect High 5 insect cells. Four days post infection, media was harvested and recombinant protein prepared as follows. Media was chilled to 4° C. and spun at 4000×g for 20 minutes (all subsequent steps were performed at 4° C. unless noted). Clarified media was passed first through a Whatman GF/B 1 um (#1821-047, GE Healthcare Life Sciences, Piscataway, N.J.) and then a 0.22 um PES membrane (#99955, TPP Techno Plastic Products AG, Trasadingen, Switzerland) and then concentrated using a Pall Centramate tangential flow system and Centramate T-series Cassette (#OS010T12, Pall Corporation, Port Washington, N.Y.). Concentrated media was then buffer exchanged in two steps, five volumes of 50 mM Na-phosphate, 500 mM NaCl, pH 6.2, followed by five volumes of 50 mM Na-phosphate, 500 mM NaCl, pH 7.5. The concentrated and buffered exchanged insect cell media was again filtered as above and made 25 mM imidazole (#1202, Sigma-Aldrich, St. Louis, Mo.) and was mixed with nickel agarose beads (#H-321-25, Gold Biotechnology, Inc., St. Louis Mo.). […] Protein was quantitated using a modified Lowry protein assay (#500-0006, Bio-Rad Laboratories, Hercules, Calif.).
Inhibitors (11-pt serial dilutions, 0-20 μM final concentration in reaction) were serially diluted in DMSO (2% DMSO final concentration) and then mixed with either recombinant serine protease domain of HGFA [Z. Han, P. K. Harris, D. E. Jones, R. Chugani, T. Kim, M. Agarwal, W. Shen, S. A. Wildman, J. W. Janetka, Acs Med Chem Lett 2014, 5, 1219-1224], matriptase (Charles Craik, UCSF) or hepsin* (#4776-SE-010, R&D Systems, Minneapolis, Minn.) in black 384 well plates (Corning #3575. Corning, N.Y.). […] Changes in fluorescence (excitation at 380 nm and emission at 460 nm) were measured at room temperature over time in a Biotek Synergy 2 plate reader (Winnoski, Vt.). […]

Trypsin = Trypsin selectivity assay; conditions: Table 6.2; headed Fluorogenic Assay
matriptase = biological target: T3, matriptase (Homo sapiens, UniProt Q9Y5Y6); test: Fluorescent kinetic enzyme inhibitor assay of matriptase
T3 construct: Charles Craik, UCSF (obtained from another laboratory)
T3 sequence (Q9Y5Y6 615-855 limits assumed): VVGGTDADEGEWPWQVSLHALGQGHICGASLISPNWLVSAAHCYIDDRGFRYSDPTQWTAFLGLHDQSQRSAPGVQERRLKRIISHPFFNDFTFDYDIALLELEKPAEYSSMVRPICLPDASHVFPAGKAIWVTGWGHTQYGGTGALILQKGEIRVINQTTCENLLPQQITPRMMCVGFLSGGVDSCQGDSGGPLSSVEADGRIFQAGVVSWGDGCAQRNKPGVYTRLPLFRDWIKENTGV
Description: (§1) Inhibitors (11-pt serial dilutions, 0-20 μM final concentration in reaction) were serially diluted in DMSO (2% DMSO final concentration) and then mixed with either recombinant serine protease domain of HGFA [Z. Han, P. K. Harris, D. E. Jones, R. Chugani, T. Kim, M. Agarwal, W. Shen, S. A. Wildman, J. W. Janetka, Acs Med Chem Lett 2014, 5, 1219-1224], matriptase (Charles Craik, UCSF) or hepsin* (#4776-SE-010, R&D Systems, Minneapolis, Minn.) in black 384 well plates (Corning #3575. Corning, N.Y.). […] The final substrate concentrations for all assays were at the Km for the respective enzymes. Changes in fluorescence (excitation at 380 nm and emission at 460 nm) were measured at room temperature over time in a Biotek Synergy 2 plate reader (Winnoski, Vt.). Using GraphPad Prism version 6.04 software program, (GraphPad Software, San Diego, Calif., www.graphpad.com), a four parameter curve fit was used to determine the inhibitor IC50s from a plot of the mean reaction velocity versus the inhibitor concentration. The IC50 values represent the average of three separate experimental determinations.

hepsin = biological target: T4, hepsin (Homo sapiens, UniProt P05981); test: Fluorescent kinetic enzyme inhibitor assay of hepsin
T4 construct: purchased R&D Systems 4776-SE-010
T4 sequence (P05981 163-417 limits assumed): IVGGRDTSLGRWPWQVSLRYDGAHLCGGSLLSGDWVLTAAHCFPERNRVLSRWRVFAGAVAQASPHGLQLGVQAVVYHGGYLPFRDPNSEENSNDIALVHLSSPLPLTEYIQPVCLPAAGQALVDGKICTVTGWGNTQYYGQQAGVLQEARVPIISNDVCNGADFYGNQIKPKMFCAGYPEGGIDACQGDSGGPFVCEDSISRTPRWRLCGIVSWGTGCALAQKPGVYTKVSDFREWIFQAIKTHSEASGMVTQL
T4 sequence (P05981 45-162 partner limits assumed): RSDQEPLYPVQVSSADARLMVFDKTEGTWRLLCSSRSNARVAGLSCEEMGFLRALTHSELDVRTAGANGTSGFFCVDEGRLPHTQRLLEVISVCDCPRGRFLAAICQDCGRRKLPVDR
Description: as §1

SMILES: CC(=O)N[C@@H](CNC(=N)N)C(=O)N[C@@H](CCCCNC(=N)N)C(=O)N[C@@H](CC(C)C)C(=O)N[C@@H](CCCNC(=N)N)C(=O)Nc1ccc2c(CC(N)=O)cc(=O)oc2c1 [Ac-Agp-hArg-Leu-Arg-ACC] (Ac-[Agp][hArg]LR-{ACC})
- Km (HGFA [1]): 37.8 µM

SMILES: CC(=O)N[C@@H](C)C(=O)N[C@@H](CCCNC(=N)N)C(=O)N[C@@H](CC(C)C)C(=O)N[C@@H](CCCNC(=N)N)C(=O)Nc1ccc2c(CC(N)=O)cc(=O)oc2c1 [Ac-Ala-Arg-Leu-Arg-ACC] (Ac-ARLR-{ACC})
- Km (HGFA [1]): 107 µM

SMILES: CC(=O)N[C@@H](CCCCN)C(=O)N[C@@H](CCC(N)=O)C(=O)N[C@@H](CC(C)C)C(=O)N[C@@H](CCCNC(=N)N)C(=O)c1nc2ccc(C(=O)N[C@H](C(N)=O)C(C)C)cc2s1 [Compound 7055, Ac-KQLR(SEQ ID NO: 1)-Kbt-Val—NH2] (Ac-KQL[X1]V-NH2)
- Ki (Trypsin): 0.07 nM
- fold decrease in matriptase activity (matriptase; versus parent compound): > 10 fold
- fold increase in HGFA potency (HGFA [2]): 2 fold
- fold decrease in hepsin activity (hepsin; versus parent compound): > 3 fold

SMILES: CC(=O)N[C@@H](CO)C(=O)N[C@@H](CCCCN)C(=O)N[C@@H](CC(C)C)C(=O)N[C@@H](CCCNC(=N)N)C(=O)c1nc2ccc(C(=O)N[C@H](C(N)=O)C(C)C)cc2s1 [Compound 7116, Ac-SKLR(SEQ ID NO: 10)-Kbt-Val— NH2] (Ac-SKL[X1]V-NH2)
- effect on matriptase potency (matriptase; versus parent compound): no effect
- fold increase in HGFA potency (HGFA [2]): 4 fold
- effect on hepsin potency (hepsin; versus parent compound): no effect

SMILES: CC(=O)N[C@@H](CO)C(=O)N[C@@H](CCCCN)C(=O)N[C@@H](CC(C)C)C(=O)N[C@@H](CCCNC(=N)N)C(=O)c1nc2ccc(C(=O)N[C@@H](Cc3ccccc3)C(N)=O)cc2s1 [Compound 7125, Ac-SKLR(SEQ ID NO: 10)-Kbt-Phe— NH2] (Ac-SKL[X1]F-NH2)
- Ki (Trypsin): 0.27 nM

SMILES: CC(=O)N[C@@H](CO)C(=O)N[C@@H](CCCCN)C(=O)N[C@@H](CC(C)C)C(=O)N[C@@H](CCCNC(=N)N)C(=O)c1nc2ccc(C(=O)Nc3ccncc3)cc2s1 [Compound 7126, Ac-SKLR(SEQ ID NO: 10)-Kbt-4-pyridinylamide]
- Ki (Trypsin): 1.06 nM

SMILES: CC(=O)N[C@@H](CCCCN)C(=O)N[C@@H](CCCNC(=N)N)C(=O)N[C@@H](CC(C)C)C(=O)N[C@@H](CCCNC(=N)N)C(=O)c1nc2ccc(C(=O)NCc3cccc(C(=O)O)c3)cc2s1 [Compound 7165, Ac-KRLR(SEQ ID NO: 8)-Kbt-5-COOH]
- Ki (Trypsin): 1.06 nM

SMILES: CC(C)C[C@H](NC(=O)[C@@H](N)CCCNC(=N)N)C(=O)N[C@@H](CCCNC(=N)N)C(=O)c1nc2ccc(C(=O)N[C@H](C(N)=O)C(C)C)cc2s1 [Compound 7180, H-RLR-kbt V amide]
- Ki (Trypsin): 0.31 nM

SMILES: CC(C)C[C@H](NC(=O)[C@@H](N)Cc1c[nH]c2ccccc12)C(=O)N[C@@H](CCCNC(=N)N)C(=O)c1nc2ccc(C(=O)N[C@H](C(N)=O)C(C)C)cc2s1 [Compound 7181, H-WLR-kbt V amide]
- Ki (Trypsin): 0.01 nM

SMILES: CC(C)C[C@H](NC(=O)[C@@H](N)CC(C)C)C(=O)N[C@@H](CCCNC(=N)N)C(=O)c1nc2ccc(C(=O)N[C@H](C(N)=O)C(C)C)cc2s1 [Compound 7182, H-LLR-kbt V amide]
- Ki (Trypsin): 0.61 nM

Further lines, results first:

- Ki (HGFA [2]): 2280 nM
SMILES: CC(C)C[C@H](NC(=O)[C@@H](Cc1c[nH]c2ccccc12)NC(=O)[C@@H](N)Cc1cn(COCc2ccccc2)cn1)C(=O)N[C@@H](CCCNC(=N)N)C(=O)c1nc2ccccc2s1 [Compound 1-58A1, H-His(Bom)-dWLR-kbt]

- Ki (Trypsin): 0.02 nM
SMILES: CC(=O)N[C@@H](CO)C(=O)N[C@@H](CCCCN)C(=O)N[C@@H](CC(C)C)C(=O)N[C@@H](CCCNC(=N)N)C(=O)c1nc2ccc(C(=O)N[C@@H](Cc3c[nH]c4ccccc34)C(N)=O)cc2s1 [Compound 7124, Ac-SKLR(SEQ ID NO: 10)-Kbt-Trp— NH2] (Ac-SKL[X1]W-NH2)

- Ki (Trypsin): 0.05 nM
SMILES: CC(=O)N[C@@H](CO)C(=O)N[C@@H](CCCCN)C(=O)N[C@@H](CC(C)C)C(=O)N[C@@H](CCCNC(=N)N)C(=O)c1nc2ccc(C(=O)NCc3ccccc3)cc2s1 [Compound 7139, Ac-SKLR(SEQ ID NO: 10)-Kbt- benzylamide]

- Ki (Trypsin): 0.41 nM
SMILES: CC(=O)N[C@@H](CO)C(=O)N[C@@H](CCCCN)C(=O)N[C@@H](CC(C)C)C(=O)N[C@@H](CCCNC(=N)N)C(=O)c1nc2ccc(C(=O)NC3CCNCC3)cc2s1 [Compound 7140, Ac-SKLR(SEQ ID NO: 10)-Kbt-4-piperidinylamide]

- Ki (matriptase; Table 6.1, Fluorogenic Assay): 3.6 nM
- Ki (HGFA [2]): 3.33 nM
- Ki (hepsin; Table 6.1, Fluorogenic Assay): 0.3 nM
SMILES: CC(=O)N[C@@H](CCCCN)C(=O)N[C@@H](CCCNC(=N)N)C(=O)N[C@@H](CC(C)C)C(=O)N[C@@H](CCCNC(=N)N)C(=O)c1nc2ccc(C(=O)NCc3ccc(C(=O)O)cc3)cc2s1 [Compound 7164, Ac-KRLR(SEQ ID NO: 8)-kbt-Benzyl-3-COOH]

- Km (HGFA [1]): 73.4 µM
SMILES: CCCC[C@H](NC(=O)[C@@H](Cc1c[nH]c2ccccc12)NC(=O)[C@@H](N)CC(C)C)C(=O)N[C@@H](CCCNC(=N)N)C(=O)Nc1ccc2c(CC(N)=O)cc(=O)oc2c1 [NH2-Leu-DTrp-Nle-Arg-ACC] (H-L[dW][Nle]R-{ACC})
